Experimental findings from PubChem BioAssay AID1508623 (National Center for Advancing Translational Sciences (NCATS), 2021) are described below.

In all, about 48,000 compounds went through this assay and about 450 (0.94%) were called active. Not shown: some 19% with an inconclusive outcome. Calls follow the shape of the dose curve; as a rule, active = well fitted inhibition curve with a large enough effect; inconclusive = small, poorly fitted or top-dose-only effect; inactive = no such curve, though single readings can be large or run the other way. Some of the results follow.

A short description of the assay: Primary qHTS for Identification of Small Molecule Inhibitors of Huntingtin Promoter Activity. Also: nearly all actives have a fitted effect of over 50% in size. The conditions noted are these: HEK293 HTT promoter firefly luciferase reporter (activity 0% = vehicle and -100% = no light), 24 h; series mostly up to 57.5 µM; activity change, negative = inhibition: at the top concentration. Put shortly: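 Firefly luciferase signal from promoter-reporter HEK293 cells was scaled between vehicle (0%) and zero RLU (-100%). Compounds were tested at final concentrations of up to 57.5 uM over 24 h at 37 degrees C. PTC124 at 50 uM final served as control inhibitor.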
For orientation: In qHTS, concentration-response curves come from the screen itself.
For the molecule `COc1cccc(NC(=O)CSc2nc(-c3ccccc3Cl)nc3c2Cc2c(CO)cnc(C)c2O3)c1`, the “activity change, negative = inhibition” value was inactive: -0.906%.
As for `COc1ccc(-c2cc(-c3ccccc3)nc(SCC(=O)Nc3ccccc3F)c2C#N)cc1`, the “activity change, negative = inhibition” value was inactive: -5.89%.
Take `CCOC(=O)C1=C(CS(=O)(=O)c2ccc(OC)c(Cl)c2)NC(=O)NC1c1cccc(OC)c1` (stereo unspecified): the “activity change, negative = inhibition” value was inactive: -9.88%.
As for `Clc1cccc(Cl)c1NC1=NCCN1`, the activity change, negative = inhibition entry was “inactive”.
Take `COc1cccc(NC(=O)CSc2nc3c([nH]c4ccccc43)c(=O)n2-c2cccc(Cl)c2)c1`: the “activity change, negative = inhibition” value is inactive: -29.2%.
On to `Cc1ccc(Cn2ccn(Cc3cccc(C(F)(F)F)c3)c(=O)c2=O)cc1`, for which the “activity change, negative = inhibition” value was inactive: -26.2%.
As to `Cc1ccc(-c2ccc(=O)n(CC(=O)Nc3ccc(C(C)C)cc3)n2)cc1`, the “activity change, negative = inhibition” value was inactive: -7.52%.
Turning to `CCOC(=O)c1ccc(NC(=O)CSc2nc(C)c(Cc3ccccc3)c(=O)[nH]2)cc1`, the “activity change, negative = inhibition” value is inactive: -16.4%.
On to `C=CCOc1ccc(C2c3c(oc4ccc(C)cc4c3=O)C(=O)N2CCCN2CCOCC2)cc1` (stereo unspecified), for which the “activity change, negative = inhibition” value is inactive: 2.5%.
As to `COCCNC(=O)CCn1c(=O)c2cc(OC)c(OC)cc2n(CC(=O)Nc2ccccc2OC)c1=O`, the “activity change, negative = inhibition” value is inactive: -6.01%.
In the case of `Cc1ccc(-n2nc(C)c3c(C)cc(=O)n(CC(=O)NC(C)C)c32)cc1`, the “activity change, negative = inhibition” value was inactive: 6.06%.
As for `CCN(CC)CCOC(=O)c1ccc(NC(=O)CSc2cc(=O)n(CC)c3ccccc23)cc1`, the “activity change, negative = inhibition” value was inactive: 8.91%.
As for `CCc1nn(CC(=O)Nc2ccc(C)cc2C)c(=O)c2cc3sccc3n12`, the “activity change, negative = inhibition” value is inactive: 10.4%.
Turning to `Cc1ccc(NC(=O)c2cn(-c3ccccc3)nc2-c2ccccc2)cc1`, the “activity change, negative = inhibition” value was inactive: -30.5%.
Next, `O=C(NCc1ccccc1)c1ccc(NC(=O)N2CCSc3ncccc32)cc1`: inactive: -36.9%; `COc1cc(OC)c(NC(=O)c2cnn(-c3cccc(Cl)c3C)c2C2CCN(C(=O)OC(C)(C)C)CC2)cc1Cl`: inactive: -9.26%.
Regarding `Cc1ccc(C2=NN(CC(=O)NC(C)c3ccccc3)C(=O)CC2)cc1` (stereo unspecified), the “activity change, negative = inhibition” value is inactive: -8.36%.
As for `COc1ccc(-c2cn3nc(N4CCC(C(=O)NCc5ccc(F)cc5)CC4)sc3n2)cc1`, the “activity change, negative = inhibition” value is inactive: 19.6%.
Take `COc1ccc(NC(=O)C2CCC(CNS(=O)(=O)c3csc(C(N)=O)c3)CC2)cc1` (stereo unspecified): the “activity change, negative = inhibition” value is inactive: -21.6%.
The value for `CC(C)c1ccc(Nc2c(-c3ccc(N4CCOCC4)cc3)nc3ncccn23)cc1` was inactive: -3.14%; that for `COc1ccc(-c2onc(C)c2C)cc1S(=O)(=O)Nc1ccc(OC(F)(F)F)cc1` was inactive: -27.3%; that for `CCOC(=O)c1cccc(NC(=O)c2cc(S(=O)(=O)N3CCCC3)cn2C)c1` was inactive: -12.7%.
For the molecule `CCOC(=O)CNC(=O)c1cc2c(=O)n(CC)c3ccccc3c2s1`, the “activity change, negative = inhibition” value was inactive: 10.3%.
The value for `COC(=O)c1cc2sc(C)cc2n1Cc1ccccc1` was inactive: -17.6%; that for `CCCOC(=O)c1ccc(NC(=O)Cn2nnc3sc4c(c3c2=O)CCC(C(C)(C)C)C4)cc1` (stereo unspecified) was inactive: 0%; that for `Cc1ccc(CNC(=O)CSc2ccc(-c3sc(-c4ccccc4)nc3C)nn2)cc1` was inactive: -2.57%.
